Results published in PubChem BioAssay.
Inconclusive means that the source gave no clear call. Such entries were picked first, then a sample of the others. Where the call is inconclusive, the potency comes from a doubtful curve fit. Activity calls are given as the source filed them. Unless noted, cut-off not given; nearly all actives show AC50 up to about 30 µM.

assay: SU-DIPG-VI glioma cell viability, MIPE4.0 library, CellTiter-Glo luminescence, qHTS (AID 1347066); details: CellTiter-Glo ATP luminescence;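 further: cells exposed to compound for 48 hours before readout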

Row | SMILES | AC50 | outcome
1 | C#CCN(C)CC1=Cc2ccccc2Oc2ccccc21 | inconclusive: 5.9 µM [cytotoxic] | 
2 | O=C(O)C1=CO[C@@H](O[C@@H]2O[C@H](CO)[C@@H](O)[C@H](O)[C@H]2O)[C@@H]2C(CO)=CC[C@H]12 |  | inactive
3 | CC(=O)N1CCN(c2ccc(OC[C@H]3CO[C@](Cn4ccnc4)(c4ccc(Cl)cc4Cl)O3)cc2)CC1 | inconclusive: 10.5 µM [cytotoxic] | 
4 | CCCCC[C@H](O)/C=C/[C@H]1[C@H](O)CC(=O)[C@@H]1C/C=C\CCCC(=O)O | inconclusive: 23.5 µM [cytotoxic] | 
5 | COC[C@H](NC(=O)c1cnc(C)s1)C(=O)N[C@@H](COC)C(=O)N[C@@H](Cc1ccccc1)C(=O)[C@@]1(C)CO1 | active: 0.332 µM | 
6 | Cc1ccc(S(=O)(=O)NC(=O)NN2CC3CCCC3C2)cc1 (stereo not given) | inconclusive: 26.4 µM [cytotoxic] | 
7 | CC[C@H]1OC(=O)[C@H](C)C(=O)[C@H](C)[C@@H](O[C@H]2O[C@H](C)C[C@H](N(C)C)[C@H]2O)[C@](C)(OC)C[C@@H](C)C(=O)[C@H](C)[C@H]2N(CCCCn3cnc(-c4cccnc4)c3)C(=O)O[C@]12C | inconclusive: 20.9 µM [cytotoxic] | 
8 | NC[C@H]1O[C@H](O[C@@H]2[C@H](O)[C@@H](O[C@H]3O[C@H](CO)[C@@H](O)[C@H](N)[C@H]3O)[C@H](N)C[C@@H]2N)[C@H](O)[C@@H](O)[C@@H]1O |  | inactive
9 | NC(=O)c1ccc(-c2nc(-c3ccc4c(c3)OCO4)c(-c3ccccn3)[nH]2)cc1 |  | inactive

assay: JHH-DIPG-1 glioma cell viability, MIPE5.0 library, CellTiter-Glo luminescence, qHTS (AID 1347067; cut-off not given, nearly all actives have AC50 up to about 26 µM;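 further: cells exposed to compound for 48 hours before readout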); details: JHH-DIPG-1 glioma viability, CellTiter-Glo ATP luminescence

Row | SMILES | AC50 | outcome
10 | COc1ccc(Nc2cc(-c3cnc(N)nc3)nc(N3CCOCC3)n2)cn1 | inconclusive: 0.742 µM [cytotoxic] | 
11 | CC(=O)N1CCN(c2ccc(OC[C@H]3CO[C@](Cn4ccnc4)(c4ccc(Cl)cc4Cl)O3)cc2)CC1 | inconclusive: 0.00166 µM | 
12 | CCCCC[C@H](O)/C=C/[C@H]1[C@H](O)CC(=O)[C@@H]1C/C=C\CCCC(=O)O | inconclusive: 37.2 µM [cytotoxic] | 
13 | COC[C@H](NC(=O)c1cnc(C)s1)C(=O)N[C@@H](COC)C(=O)N[C@@H](Cc1ccccc1)C(=O)[C@@]1(C)CO1 | inconclusive: 0.148 µM [cytotoxic] | 
14 | CC[C@H]1OC(=O)[C@H](C)C(=O)[C@H](C)[C@@H](O[C@H]2O[C@H](C)C[C@H](N(C)C)[C@H]2O)[C@](C)(OC)C[C@@H](C)C(=O)[C@H](C)[C@H]2N(CCCCn3cnc(-c4cccnc4)c3)C(=O)O[C@]12C |  | inactive
15 | NC(=O)c1ccc(-c2nc(-c3ccc4c(c3)OCO4)c(-c3ccccn3)[nH]2)cc1 | inconclusive: 2.95 µM [cytotoxic] | 

assay: SU-DIPG-XXV glioma cell viability, MIPE5.0 library, qHTS (AID 1347068; cut-off not given, nearly all actives have IC50 up to about 30 µM;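 further: cells exposed to compound for 48 hours before viability readout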); details: not given

Row | SMILES | IC50
16 | C=C1CCC2[C@](C)(CO)C(O)CC[C@]2(C)C1C/C=C1/C(=O)OCC1O (stereo not given in full) | inconclusive: 29.5 µM [cytotoxic]
17 | COc1ccc(Nc2cc(-c3cnc(N)nc3)nc(N3CCOCC3)n2)cn1 | inconclusive: 2.63 µM [cytotoxic]
18 | CC(=O)N1CCN(c2ccc(OC[C@H]3CO[C@](Cn4ccnc4)(c4ccc(Cl)cc4Cl)O3)cc2)CC1 | inconclusive: 20.9 µM [cytotoxic]
19 | COC[C@H](NC(=O)c1cnc(C)s1)C(=O)N[C@@H](COC)C(=O)N[C@@H](Cc1ccccc1)C(=O)[C@@]1(C)CO1 | inconclusive: 0.00934 µM [cytotoxic]
20 | CC[C@H]1OC(=O)[C@H](C)C(=O)[C@H](C)[C@@H](O[C@H]2O[C@H](C)C[C@H](N(C)C)[C@H]2O)[C@](C)(OC)C[C@@H](C)C(=O)[C@H](C)[C@H]2N(CCCCn3cnc(-c4cccnc4)c3)C(=O)O[C@]12C | inconclusive: 33.2 µM [cytotoxic]
